# The other results are listed elsewhere or left out.
# System: PfHDP1 homeodomain (GST-tagged)
# Assay: gcPBM binding intensity (ln(normalized median fluorescence intensity)); higher = stronger DNA binding
# Procedure, shortened: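 For binding intensity, the highest Masliner-normalised natural-log median intensity across replicate spots of either probe orientation was taken. Protein bound to the array was stained with Alexa488 anti-GST antibody and scanned at 488 nm. The protein, GST-tagged P. falciparum DNA-binding domains from E. coli at about 25 μg on average, had been applied for 1 h to an Agilent 4 × 180k array of primer-extended double-stranded 36-bp intergenic genomic probes and negative controls.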
row,Sequence,gcPBM binding intensity (ln)
1,ATAATGTTTCTTTCAACACACAAAAAATGAACCCAT [CACACA_site4947],7.16
2,TAAAAAAGTTATATTACACACTTTATTGGTTAACTT [CACACA_site653],6.18
3,ACATATAAATTATATACACACAATAATATATATATA [CACACA_site1384],8.56
4,TTTTTTTTTGTTAGTTGTACGTTAAATGAATTTACT [XGTACX_site7675],6.55
5,TAAATTAGAATAAATACACACAAATTAGAATTCTAT [CACACA_site7781],6.39
6,TAAAGTGTCAAATTCACACACATATATATATATATA [CACACA_site1380],9.28
7,AATGATTTTAAAAAATGTACTTTATAAACAAAATTA [XGTACX_site3803],6.11
8,GTATAATTGGAAATTACACACCTTATAATGTAACAT [CACACA_site6091],6.31
9,ATAAAAATAAATAAATTATATAAATGTAATATGAAA [GTGCAC_negctrl_site663],6.25
10,TTTAGAGAAGTCAAGTGTACATATAAAATAATTCAC [XGTACX_site4997],6.31
11,AAAAAAAAATATATATGTACATATGTATAATAAAAA [XGTACX_site2110],6.69
12,AATGAAGACTTTTTTACACACTTCATATATTATATA [CACACA_site2034],6.83
13,TATTTATTTATATATGCATGCTAATAATTATAACAT [TGCATGCA_site988],6.77
14,ATATTATATAACTTTTGTACGAACTATTTTATATAT [XGTACX_site6],6.73
15,ACCTATGTATATTATACACACTCCAAACTATTCTTT [CACACA_site6939],7.36
16,CCAAACTAAATGTACACACATACATAAATATAAATA [CACACA_site1141],6.66
17,ATGTAATAAATATACACACACAAATATATATATATA [CACACA_site2395],9.07
18,CATGAATATTTTAATGTGCACATTTATCATTATATG,10.6
19,ATATTTTCAGTTCTCCATTATGTTCCCATTATTTTT [CACACA_negctrl_site990],7.03
20,ATTTTAATTTGTTATACACACACAAAAAAAATTATA [CACACA_site9306],6.58
21,TATATCAAAATACATACACACATTTGTATTTACATT [CACACA_site5485],6.58
22,TTTTTTTTTAATCATGCACACTGTTAAAAGAATAAA [CACACA_site4817],8.29
23,ATTTATTTGAAGAATTGTACTAAATTATATAGCGGT [XGTACX_site4998],6.76
24,TATAAAAAAATATATATATATATTATATGTGTAGAA [TGCATGCA_negctrl_site391],7.03
25,ATAAATATTTATAACAGTACATATTTACTATCCTAA [XGTACX_site4497],6.16
